Laboratory results published in PubChem BioAssay AID686978 (National Center for Advancing Translational Sciences (NCATS), 2013).
Out of some 420,000 compounds screened, about 64,000 (15%) were called active. The shares of active, inactive and inconclusive entries below differ from those in the screen. The call rests on the fitted dose curve; in most records, active means well fitted inhibition curve with a large enough effect; inconclusive means small, poorly fitted or top-dose-only effect; inactive means flat fitted curve, though single readings scatter. Potencies of inconclusive entries are left out as doubtful fits.
On the % scale 0 is the no-effect control and ±100 the full control effect; potency means the concentration at half of the fitted maximal effect; tags describe the fitted curve by direction and shape.

Test: qHTS for Inhibitors of human tyrosyl-DNA phosphodiesterase 1 (TDP1): qHTS in cells in absence of CPT; further: nearly all actives have a fitted effect of over 55% in size
Settings: DT40 Tdp1-/- hTDP1 cells, no CPT, ATP luminescence, 48 h; activity change, negative = growth inhibition: at 46.2 µM (top of the series) unless noted
How it was run: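 Chicken DT40 Tdp1-/- cells stably complemented with human TDP1 were seeded at 400 cells/well with DMSO in place of 20 nM camptothecin. After compound pinning, cells grew at least 48 hr at 37 °C; viability read by CellTiter-Glo luminescence.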
For Cc1ccc(C(c2nnnn2C2CCCC2)N2CCN(c3nc4ccccc4s3)CC2)cc1 (centres undefined), the Potency was inconclusive [inhibitor, single point].
With CCN(C(=O)c1ccc(S(C)(=O)=O)cc1)C12CC3CC(CC(C3)C1)C2 the Potency was inconclusive [inhibitor, partial curve].
In the case of NNC(=O)CN1C(c2ccccc2)=Nc2ccc(Br)cc2C1c1ccccc1 (centres undefined), the Potency is reported as inconclusive [inhibitor, single point].
For O=C(c1ccccc1Sc1cccc2ccccc12)N1CCOCC1, the Potency was active: 20.6 µM.
With CN(C1CCCCC1)S(=O)(=O)Cc1ccccc1 the Potency was inconclusive [inhibitor, partial curve, poor fit].
In the case of O=C(COc1ccccc1)Nc1cc(NC(=O)COc2ccccc2)cc(C(=O)O)c1, the Potency is reported as inconclusive [inhibitor, partial curve].
In the case of O=C(N/N=C/c1c(O)n(-c2ccc(Cl)cn2)c(=O)c2ccccc12)c1ccncc1, the Potency is reported as “inactive”.
In the case of O=C(Nc1ccc(Cl)cc1F)c1ccc(COc2c(F)c(F)c(F)c(F)c2F)o1, the Potency is reported as “inactive”.
In the case of Cc1cc(=O)n2c3c(cccc13)CCC2, the Potency is reported as “inactive”.
In the case of OCCNc1ncnc2c1ncn2[C@H]1CN(C2CCCC2)C[C@@H](CO)O1, the Potency is reported as “inactive”.
In the case of CCC1c2ccc(C)n2CCN1C(=O)Nc1ccc(F)cc1 (centres undefined), the Potency is reported as inconclusive [inhibitor, single point].
For CCCOc1cccc(C(=O)Nc2cccc(NC(=O)c3ccc(C(C)(C)C)cc3)c2)c1, the Potency was active: 29.1 µM.
In the case of CC1(C(=O)NCCN2CCOCC2)C=CCN1C(=O)c1ccccc1 (centres undefined), the Potency is reported as “inactive”.
In the case of COc1ccccc1NC(=O)c1c[nH]c2ccccc12, the Potency is reported as inconclusive [inhibitor, single point].
With COc1ccc2[nH]c(C)c(CCNS(=O)(=O)c3cc(F)ccc3OC)c2c1 the Potency was “inactive”.
For CN(C)c1ccc(C(CNC(=O)c2ccc(C(C)(C)C)cc2)N2CCOCC2)cc1 (centres undefined), the Potency was active: 20.6 µM.
With COc1cc(OC)cc(C(=O)Nc2ccccc2-c2nc3ccccc3s2)c1 the Potency was active: 5.8 µM.
In the case of O=C(Nc1nnc(-c2ccncc2)o1)c1ccc2ccccc2c1, the Potency is reported as active: 7.31 µM.
In the case of O=[N+]([O-])c1ccc(S(=O)(=O)Nc2cccc(-c3ccc(N4CCCC4)nn3)c2)cc1, the Potency is reported as “inactive”.
In the case of Cc1ccn2cc(CNS(=O)(=O)c3ccc4ccccc4c3)nc2c1, the Potency is reported as inconclusive [inhibitor, full curve].
In the case of CC(=O)c1cccc(NC(=O)Cc2cccs2)c1, the Potency is reported as “inactive”.
With CC(C)(C)NC(=O)C(CCc1ccccc1)n1c(=O)c(-c2ccccc2)nc2ccccc21 (centres undefined) the Potency was active: 2.91 µM.
In the case of O=C(Nc1nc(-c2ccncc2)cs1)c1ccc(S(=O)(=O)N2CCOCC2)cc1, the Potency is reported as inconclusive [inhibitor, single point].
In the case of Cc1nc2ccc(NS(=O)(=O)c3ccc(F)c(F)c3)cc2s1, the Potency is reported as inconclusive [inhibitor, partial curve].
In the case of Cc1ccc(C(=O)N2CCCC(C(=O)c3ccc(Cl)cc3C)C2)cn1 (centres undefined), the Potency is reported as active: 20.6 µM.
In the case of Cc1cccc(S(=O)(=O)N2CCN(c3nc(-c4cccs4)nc4ccccc34)CC2)c1, the Potency is reported as “inactive”.
For c1ccc(-c2ccc3ncccc3n2)cc1, the Potency was inconclusive [inhibitor, single point].
With CCC(c1nnnn1C(C)(C)C)N(Cc1ccco1)Cc1cc2cccc(C)c2[nH]c1=O (centres undefined) the Potency was inconclusive [inhibitor, single point].
With O=S(=O)(c1ccc(SCCO)nc1)N1CCOCC1 the Potency was “inactive”.
In the case of Cc1coc2cc3oc(=O)c(CCC(=O)NCc4ccc(Cl)cc4)c(C)c3cc12, the Potency is reported as active: 25.9 µM.
For CN(CC(=O)Nc1sc2c(c1C#N)CCCCC2)Cc1nc2ccccc2c(=O)[nH]1, the Potency was active: 18.4 µM.
In the case of Cc1ccc(S(=O)(=O)N2CCN(C(=O)CSc3ncc(C(F)(F)F)cc3Cl)CC2)cc1, the Potency is reported as inconclusive [inhibitor, single point].
With Cc1cc(C)c(NC(=O)C2CCCN2CCC(C)C)c(C)c1 (centres undefined) the Potency was inconclusive [inhibitor, partial curve].
In the case of COC(=O)c1c(C)[nH]c(C(=O)/C=C/c2ccccc2F)c1C, the Potency is reported as inconclusive [inhibitor, single point].
In the case of CN(C)c1ccc(N=Nc2nccs2)cc1, the Potency is reported as inconclusive [inhibitor, single point].
For Cc1ccc(C2=N/C(=C\N3CCCCC3)C(=O)O2)cc1, the Potency was “inactive”.
With CN(C(=O)c1cc(S(=O)(=O)N2CCCCC2)c[nH]1)C1CCCCC1 the Potency was inconclusive [inhibitor, single point].
With CC(=O)NS(=O)(=O)c1ccc(NC(=O)C(C)NS(=O)(=O)/C=C/c2ccccc2)cc1 (centres undefined) the Potency was “inactive”.
In the case of Cc1cc(O)c(-c2cc(C(=O)NCCc3ccc(S(N)(=O)=O)cc3)[nH]n2)cc1C, the Potency is reported as inconclusive [inhibitor, single point].
With O=C(N/N=C/c1ccc(O)cc1O)NC12CC3CC(CC(C3)C1)C2 the Potency was inconclusive [inhibitor, single point].
With O=C(Nc1cccnc1Cl)c1cnn2c1NC(=C1CC1)C=C2C(F)F the Potency was active: 8.91 µM.
For O=C(Nc1cccnc1)c1cc(-c2cccnc2)nc2ccc(Br)cc12, the Potency was inconclusive [inhibitor, single point].
In the case of CCOC(=O)CSc1nc2c(sc(=S)n2-c2ccccc2)c(=O)[nH]1, the Potency is reported as “inactive”.
In the case of CCCCCN(C(=O)CCC(=O)OCC(=O)NC1CCC(C)CC1)c1c(N)n(CCCC)c(=O)[nH]c1=O (centres undefined), the Potency is reported as “inactive”.
With CN(CC(=O)Nc1ccc(Cl)c(C(F)(F)F)c1)C(=O)c1cc(=O)c2ccccc2o1 the Potency was inconclusive [inhibitor, single point].
For O=C(O)c1c(NC(=O)N(CCO)Cc2ccccc2)sc2c1CCCC2, the Potency was “inactive”.
In the case of CCC(=O)Oc1ccc2c(=O)c(-c3ccc4ccccc4n3)c(CC)oc2c1C, the Potency is reported as inconclusive [inhibitor, single point].
In the case of CN(C(=O)CSc1nnc(-c2ccccc2F)o1)c1ccccc1, the Potency is reported as “inactive”.
In the case of COc1ccc(-c2cc(C(F)(F)F)n3nc(C(=O)Nc4cc(Cl)cc(Cl)c4)cc3n2)cc1, the Potency is reported as inconclusive [inhibitor, single point].
With O=C(Nc1nnc(-c2ccc(Cl)s2)o1)C1CCCCC1 the Potency was inconclusive [inhibitor, partial curve, poor fit].
With COc1ccc(N2CCN(C(=O)c3ccc(-n4nc(C)cc4C)cc3)CC2)cc1 the Potency was inconclusive [inhibitor, single point].
For O=C(CCC(=O)NNC(=O)Nc1ccc(Cl)cc1)NCc1ccccc1, the Potency was “inactive”.
For Cc1ccc(C(C(=O)NC(C)(C)C)N(CC2CCCO2)C(=O)CCC(=O)Nc2ccccn2)cc1 (centres undefined), the Potency was “inactive”.
For O=C1NC(=S)SC1=Cc1ccc(Cl)cc1, the Potency was active: 20.6 µM.
For Cc1cc2nc(C3CCCCC3)c(Cc3ccccc3C(F)(F)F)n2c(C)c1Br, the Potency was inconclusive [inhibitor, single point].
With CCOC(=O)C1CCN(C(=O)Cn2nc(C)n3c(cc4cc(F)ccc43)c2=O)CC1 the Potency was inconclusive [inhibitor, partial curve, poor fit].
With CN(C)c1ccc(C(=O)/C=C/c2ccccc2)cc1 the Potency was inconclusive [inhibitor, single point].
In the case of O=C(CN1C(=O)c2ccccc2S1(=O)=O)Nc1cc(S(=O)(=O)N2CCOCC2)ccc1N1CCOCC1, the Potency is reported as “inactive”.
In the case of Cc1ccc(S(=O)(=O)NC(C(=O)N2CCOCCOCCOCC2)c2ccccc2)cc1 (centres undefined), the Potency is reported as “inactive”.
With O=C(NCCN1CCOCC1)C12CC3CC(C1)CC(c1ccccc1)(C3)C2 the Potency was “inactive”.
For Cc1nc2ccc(NC(=O)c3cncc(Br)c3)cc2s1, the Potency was inconclusive [inhibitor, single point].
In the case of COc1cccc(-n2c(=O)n(Cc3ccccc3)c(=O)c3[nH]cnc32)c1C, the activity change, negative = growth inhibition is reported as inconclusive: -33.7% [inhibitor].
For O=Cc1ccc(OC(=O)/C=C/c2ccccc2)cc1, the Potency was “inactive”.
With Cc1ccc(NC(=O)C2C(=O)N(CCO)C3(C)CC2c2ccccc2O3)cc1 (centres undefined) the Potency was “inactive”.
For CC1CCCN(c2ccc(/C=C(\C#N)c3nn(-c4ccccc4)c(N)c3C#N)cc2[N+](=O)[O-])C1 (centres undefined), the Potency was active: 20.6 µM.
With CCOc1cc2[nH]c(=O)n(CCCCC(=O)N3CCCCCC3)c(=O)c2cc1OCC the Potency was inconclusive [inhibitor, single point].
With Cc1ccc(SCC(=O)Nc2nncs2)cc1 the Potency was “inactive”.
With COc1cc(C(=S)N2CCOCC2)cc(OC)c1OS(=O)(=O)c1ccc(C)cc1 the Potency was “inactive”.
With CCc1ccc(C(=O)Nc2ccc(OC)c(S(=O)(=O)N3CCCCC3)c2)cc1 the Potency was inconclusive [inhibitor, single point].
For O=C(NCc1ccccc1)C(=O)NCC1OCCN1S(=O)(=O)c1ccc(Br)cc1 (centres undefined), the Potency was inconclusive [inhibitor, single point].
With CCOc1ccc(CCNC(=O)c2nnc(Cc3cc(OC)c(OC)c(OC)c3)o2)cc1OCC the Potency was inconclusive [inhibitor, single point].
With CCOc1ccc(NC(=O)N(C2CCCCC2)C(C)c2ccncc2)cc1 (centres undefined) the Potency was inconclusive [inhibitor, single point].
With Cc1ccc(C)c(S(=O)(=O)N2CCN(C(=O)Cc3ccccc3)CC2)c1 the Potency was inconclusive [inhibitor, single point].
For O=C(NCCc1ccc2c(c1)OCCO2)c1ccccc1F, the Potency was inconclusive [inhibitor, partial curve].
